Results are given in words; binding and its absence hold for the method and conditions named. In cells and extracts the contact can be indirect. Some entries that bind do so weakly or less than the wild type. Tags and fused reporters may be left off the sequences shown.
Legend:
[1] = target: T1, murine CD9 with C-terminal 3xFLAG epitope, transiently expressed in HEK293 (mouse) (UniProt P40240); test: co-IP; transient co-expression in HEK293 cells; lysis in IP buffer (50 mM Tris/HCl pH 7.4, 150 mM NaCl, 4 mM EDTA) with 1% Brij-98; 3xFLAG-tagged tetraspanin precipitated with anti-FLAG M2 agarose overnight at 4°C; Western blot
T1 sequence: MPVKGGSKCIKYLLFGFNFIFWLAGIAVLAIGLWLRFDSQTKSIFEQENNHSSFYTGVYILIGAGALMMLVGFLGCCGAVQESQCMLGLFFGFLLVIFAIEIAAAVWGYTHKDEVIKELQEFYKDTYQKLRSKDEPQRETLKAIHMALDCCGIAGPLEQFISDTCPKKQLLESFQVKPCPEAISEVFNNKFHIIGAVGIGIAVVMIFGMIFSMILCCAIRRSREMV

By UniProt entry, the sequences of proteins in these tests, tags left out.
UniProt P06804: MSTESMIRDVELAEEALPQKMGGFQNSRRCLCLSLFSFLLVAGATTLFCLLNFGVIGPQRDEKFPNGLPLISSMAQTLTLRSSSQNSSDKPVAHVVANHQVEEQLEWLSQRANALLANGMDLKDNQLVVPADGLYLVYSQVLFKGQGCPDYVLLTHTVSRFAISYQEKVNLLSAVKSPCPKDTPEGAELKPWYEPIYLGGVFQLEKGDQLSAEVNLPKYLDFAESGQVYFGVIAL

[2] = target: T2, murine CD81 with C-terminal 3xFLAG epitope, transiently expressed in HEK293 (mouse) (UniProt P35762); test: as above
T2 sequence: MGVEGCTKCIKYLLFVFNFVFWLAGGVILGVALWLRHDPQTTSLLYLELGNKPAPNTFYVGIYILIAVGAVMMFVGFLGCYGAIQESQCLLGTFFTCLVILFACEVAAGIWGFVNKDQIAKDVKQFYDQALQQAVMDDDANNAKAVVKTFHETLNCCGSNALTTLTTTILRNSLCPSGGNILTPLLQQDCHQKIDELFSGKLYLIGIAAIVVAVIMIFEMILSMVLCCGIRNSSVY

[3] = target: T1, murine CD9 with C-terminal 3xFLAG epitope, transiently expressed in HEK293 (mouse); test: co-IP; transient co-expression in HEK293 cells; lysis in IP buffer with 1% Triton X-100; 3xFLAG-tagged tetraspanin precipitated with anti-FLAG M2 agarose; Western blot
[4] = target: T2, murine CD81 with C-terminal 3xFLAG epitope, transiently expressed in HEK293 (mouse); test: as above
[5] = target: T1, murine CD9 with C-terminal 3xFLAG epitope, transiently expressed in HEK293 (mouse); test: condition: only extraction with 1% Triton X-100 (no TNF co-expressed); co-IP; transient co-expression in HEK293 cells; lysis in IP buffer with 1% Triton X-100; 3xFLAG-tagged tetraspanin precipitated with anti-FLAG M2 agarose; Western blot
[6] = target: T2, murine CD81 with C-terminal 3xFLAG epitope, transiently expressed in HEK293 (mouse); test: as above
[7] = target: T3, murine CD82 with C-terminal 3xFLAG epitope, transiently expressed in HEK293 (mouse) (UniProt P40237); test: as above
T3 sequence: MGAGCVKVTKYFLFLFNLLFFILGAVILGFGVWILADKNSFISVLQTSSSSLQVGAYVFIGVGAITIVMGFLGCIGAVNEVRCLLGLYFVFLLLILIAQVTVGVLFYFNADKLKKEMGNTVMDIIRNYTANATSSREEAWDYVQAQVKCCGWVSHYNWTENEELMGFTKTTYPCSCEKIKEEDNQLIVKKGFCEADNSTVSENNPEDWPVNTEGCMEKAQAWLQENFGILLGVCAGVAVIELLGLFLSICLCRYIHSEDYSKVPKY

[8] = target: T1, murine CD9 with C-terminal 3xFLAG epitope, transiently expressed in HEK293 (mouse); test: co-IP; transient co-expression in HEK293 cells; lysis in IP buffer (50 mM Tris/HCl pH 7.4, 150 mM NaCl, 4 mM EDTA) with 1% Brij-98; 3xFLAG-tagged tetraspanin precipitated with anti-FLAG M2 agarose overnight at 4°C; Western blot; remark: listed apart in the source
[9] = target: T2, murine CD81 with C-terminal 3xFLAG epitope, transiently expressed in HEK293 (mouse); test: as above; remark: listed apart in the source
[10] = target: T3, murine CD82 with C-terminal 3xFLAG epitope, transiently expressed in HEK293 (mouse); test: as above
[11] = target: T4, murine CD81 with C-terminal 3xFLAG epitope, stably expressed in wild-type MEFs (mouse) (UniProt P35762); test: co-IP; wild-type MEFs stably overexpressing 3xFLAG-tagged tetraspanin; lysis with 1% Brij-98; lysates pre-cleared with non protein-conjugated Sepharose beads; anti-FLAG M2 agarose; endogenous proteins detected by Western blot
T4 sequence: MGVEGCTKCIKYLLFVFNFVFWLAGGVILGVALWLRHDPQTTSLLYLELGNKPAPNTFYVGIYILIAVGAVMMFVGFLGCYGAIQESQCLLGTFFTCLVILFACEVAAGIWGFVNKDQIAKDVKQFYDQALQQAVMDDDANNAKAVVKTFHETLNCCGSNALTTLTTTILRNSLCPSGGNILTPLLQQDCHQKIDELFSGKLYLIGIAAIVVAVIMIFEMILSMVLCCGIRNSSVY

[12] = target: T5, murine CD9 with C-terminal 3xFLAG epitope, stably expressed in wild-type MEFs (mouse) (UniProt P40240); test: as above
T5 sequence: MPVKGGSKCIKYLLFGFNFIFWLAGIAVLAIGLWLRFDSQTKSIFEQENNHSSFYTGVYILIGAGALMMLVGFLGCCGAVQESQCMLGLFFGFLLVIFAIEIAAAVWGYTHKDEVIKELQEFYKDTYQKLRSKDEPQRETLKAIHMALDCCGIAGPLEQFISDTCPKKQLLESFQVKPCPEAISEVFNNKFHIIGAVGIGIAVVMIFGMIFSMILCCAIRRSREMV

[13] = target: T6, murine CD82 with C-terminal 3xFLAG epitope, stably expressed in wild-type MEFs (mouse) (UniProt P40237); test: as above
T6 sequence: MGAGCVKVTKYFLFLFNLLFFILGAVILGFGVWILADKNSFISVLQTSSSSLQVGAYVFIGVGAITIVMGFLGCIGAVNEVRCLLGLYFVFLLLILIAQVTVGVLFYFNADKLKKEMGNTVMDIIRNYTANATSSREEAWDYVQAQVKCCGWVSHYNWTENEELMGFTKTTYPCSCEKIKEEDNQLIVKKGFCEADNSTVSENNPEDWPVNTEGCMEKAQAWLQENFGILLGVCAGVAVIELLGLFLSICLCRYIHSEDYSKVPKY

[14] = target: T1, murine CD9 with C-terminal 3xFLAG epitope, transiently expressed in HEK293 (mouse); test: co-IP; transient co-expression in HEK293 cells; lysis in IP buffer with 1% Triton X-100; 3xFLAG-tagged tetraspanin precipitated with anti-FLAG M2 agarose; Western blot; remark: listed apart in the source
[15] = target: T2, murine CD81 with C-terminal 3xFLAG epitope, transiently expressed in HEK293 (mouse); test: as above; remark: listed apart in the source
[16] = target: T3, murine CD82 with C-terminal 3xFLAG epitope, transiently expressed in HEK293 (mouse); test: as above

Molecule | binding [8] | binding [9] | binding [10] | binding [11] | binding [12] | binding [13] | other results
full-length, transmembrane murine tumor necrosis factor (TNF) with an N-terminal HA and a C-terminal V5 epitope (from UniProt P06804 1-235) | – | – | – | – | – | – | binding [1]: binds; binding [2]: binds; binding [3]: binds; binding [4]: binds
murine SPPL2a fused to a C-terminal Myc-tag (enzyme, UniProt Q9JJF9 26-523) QEAILHASTNGVSSLSKDYCMYYNNNWTRLPSSLENATSLSLMNLTGTALCHLSDIPPDGIRNKAVVVHWGPCHFLEKARIAQEGGAAALLIANNSVLIPSSRNKSTFQNVTVLIAVITQKDFKDMKETLGDDITVKMYSPSWPNFDYTLVVIFVIAVFTVALGGYWSGLIELENMKSVEDAEDRETRKKKDDYLTFSPLTVVVFVVICCIMIVLLYFFYRWLVYVMIAIFCIASSMSLYNCLSALIHRMPCGQCTILCCGKNIKVSLIFLSGLCISVAVVWAVFRNEDRWAWILQDILGIAFCLNLIKTMKLPNFMSCVILLGLLLIYDVFFVFITPFITKNGESIMVELAAGPFENAEKLPVVIRVPKLMGYSVMSVCSVPVSVLGFGDIIVPGLLIAYCRRFDVQTGSSIYYISSTIAYAVGMIITFVVLMVMKTGQPALLYLVPCTLITVSVVAWSRKEMKKFWKGSSYQVMDHLDYSTNEENPVTTDEQIVQQ | binds | binds | binds | – | – | – | binding [5]: no binding; binding [6]: no binding; binding [7]: no binding
endogenous SPPL2a of MEFs (enzyme, UniProt Q9JJF9 26-523) QEAILHASTNGVSSLSKDYCMYYNNNWTRLPSSLENATSLSLMNLTGTALCHLSDIPPDGIRNKAVVVHWGPCHFLEKARIAQEGGAAALLIANNSVLIPSSRNKSTFQNVTVLIAVITQKDFKDMKETLGDDITVKMYSPSWPNFDYTLVVIFVIAVFTVALGGYWSGLIELENMKSVEDAEDRETRKKKDDYLTFSPLTVVVFVVICCIMIVLLYFFYRWLVYVMIAIFCIASSMSLYNCLSALIHRMPCGQCTILCCGKNIKVSLIFLSGLCISVAVVWAVFRNEDRWAWILQDILGIAFCLNLIKTMKLPNFMSCVILLGLLLIYDVFFVFITPFITKNGESIMVELAAGPFENAEKLPVVIRVPKLMGYSVMSVCSVPVSVLGFGDIIVPGLLIAYCRRFDVQTGSSIYYISSTIAYAVGMIITFVVLMVMKTGQPALLYLVPCTLITVSVVAWSRKEMKKFWKGSSYQVMDHLDYSTNEENPVTTDEQIVQQ | – | – | – | binds | binds | binds | –
endogenous SPPL2b of MEFs (enzyme, UniProt Q3TD49 20-578) EFGVLRVVSQTSRTRSRDYCILYNPQWAHLPHDLSKVSLLKLRDLSTTQLCSYLDVPAEDFTNQIALVARGNCTFYEKVRLAQGSGAHGLLIVSKEKLVPPGGNKTQYEEISIPVALLSHRDLQDIFRRFGREVMVALYAPSEPVMDYNMVIIFVMAVGTVAIGGYWAGSHDVKKYMKHKRDDGPEKQEDEAVDVTPVMICVFVVMCCFMLVLLYYFYDRLVYVIIGIFCLASSTGLYSCLAPFVRKLPFCTCRVPDNNLPYFHKRPQARMLLLALFCVTVSVVWGIFRNEDQWAWVLQDTLGIAFCLYMLKTIRLPTFKACTLLLLVLFIYDIFFVFITPFLTKSGNSIMVEVATGPSNSSTHEKLPMVLKVPRLNTSPLSLCDRPFSLLGFGDILVPGLLVAYCHRFDIQVQSSRIYFVACTIAYGLGLLVTFVALVLMQRGQPALLYLVPCTLLTSCTVALWRRELGAFWTGSGFAKDAPQTPWAATQGPVPPKAVGSSLSEQPPSEELAKSPLSTEEAGAADPAKDPDNPVASPLSPSNGDEAQPIPVVKPETSA | – | – | – | binds | binds | binds | –
murine SPPL2b fused to a C-terminal Myc-tag (enzyme, UniProt Q3TD49 20-578) EFGVLRVVSQTSRTRSRDYCILYNPQWAHLPHDLSKVSLLKLRDLSTTQLCSYLDVPAEDFTNQIALVARGNCTFYEKVRLAQGSGAHGLLIVSKEKLVPPGGNKTQYEEISIPVALLSHRDLQDIFRRFGREVMVALYAPSEPVMDYNMVIIFVMAVGTVAIGGYWAGSHDVKKYMKHKRDDGPEKQEDEAVDVTPVMICVFVVMCCFMLVLLYYFYDRLVYVIIGIFCLASSTGLYSCLAPFVRKLPFCTCRVPDNNLPYFHKRPQARMLLLALFCVTVSVVWGIFRNEDQWAWVLQDTLGIAFCLYMLKTIRLPTFKACTLLLLVLFIYDIFFVFITPFLTKSGNSIMVEVATGPSNSSTHEKLPMVLKVPRLNTSPLSLCDRPFSLLGFGDILVPGLLVAYCHRFDIQVQSSRIYFVACTIAYGLGLLVTFVALVLMQRGQPALLYLVPCTLLTSCTVALWRRELGAFWTGSGFAKDAPQTPWAATQGPVPPKAVGSSLSEQPPSEELAKSPLSTEEAGAADPAKDPDNPVASPLSPSNGDEAQPIPVVKPETSA | binds | binds | binds | – | – | – | binding [14]: binds; binding [15]: binds; binding [16]: binds
lysosomal protein TMEM192, endogenous in MEFs (protein, UniProt Q9CXT7 1-266) MAAAGRLEDSSLDILQSMDDDPLLDTQPLPHHSLQAQFRPRFHPLPTVIIANLLLLIHVVFVVLAFLTGVPCLYPNPTEDKCPENYTSPLKVQTAIILGKLILWILHLLFERYVQYHHRKVRSRGYSQIYRSTRHLKTLALTIHSSGNTALLLLLCVQHSFPEPSKLYLELILAVLALELICSLSCLILYIVKIRRFNRAKPLPDVLEEEKIYAYPSNTASETGFRTVSSLEEIVEKQEDIIVYLKRHNALLSKRLLELATQPART | – | – | – | no binding | no binding | no binding | –

— PMC10509304
